# ± gives the standard deviation of the averaged measurements. The list shows a part of the results.
# Test system: PfAP2-I AP2 domain 3 (GST-tagged)
# Test: gcPBM binding intensity (ln(normalized median fluorescence intensity)); higher = stronger DNA binding
# Procedure, shortened: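 Probes on an Agilent 4 × 180k array were primer-extended, double-stranded and 36 bp long, taken from intergenic genomic regions, with negative controls added. GST-tagged P. falciparum DNA-binding domains from E. coli, about 25 μg on average, were applied to the array for 1 h in 1× PBS containing 1% milk, 0.2 mg/ml BSA, 0.5% salmon testes DNA and 0.03% Triton X-100. Binding intensity, obtained after Alexa488 anti-GST antibody detection and a 488 nm scan, is the highest Masliner-normalised natural-log median intensity across replicate spots of either probe orientation.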
row,Sequence,gcPBM binding intensity (ln)
1,AAGTAAATATAATAAGGTACACATAAATAAATAAAT [XGTACX_site1740],7.96 ± 0.67
2,GGAAACACGATATATACACACATATTTATATTTATA [CACACA_site6250],7.88 ± 0.55
3,AGAAAAGGAAAATAAACATGCAAAAATAATATTAAA [TGCATGCA_site337],7.89 ± 0.76
4,TCCAAATAAATATATTGTACAGAATTATTGATACCT [XGTACX_site327],7.63 ± 0.36
5,ATGTTGTTATAAAGAGTGCAACGTATATGTATCCTT [GTGCAC_site9935],8.69 ± 0.47
6,TATATACCACATTGTTGTACGACACATTTACATTTT [XGTACX_site8370],8.21 ± 0.57
7,TTCTTTTAAAGGTATACATGCGCATGGATTTTTCAT [TGCATGCA_site223],7.95 ± 0.83
8,ATGTCTTTGAAAAAAAGTACTTAAAATTATAAAAAT [XGTACX_site147],7.96 ± 0.34
9,ACTGTCGTTTTAAAGAGTACATAAAATATTAAATTA [XGTACX_site3589],7.69 ± 0.35
10,AAAACTATTAATGCAAAAAATAAAATATAATAATAA [XGTACX_negctrl_site524],8.03 ± 1.1
11,TCAAAGCACAGATACACACACATATATATATATATA [CACACA_site287],9.37 ± 0.042
12,AATTAAAAAATTATCACACATATATATATATATATA [CACACA_site5789],9.42 ± 0.48
13,ATAAAAAAATAAAACACACACATATAGATTATAGAT [CACACA_site7343],7.88 ± 0.74
14,TAATTTGAAAAATTGTGTACTCATAAAATAAATAAA [XGTACX_site2138],7.97 ± 0.3
15,GATTTATATATATAAAATAATTGAATATTTTCTTTT [CACACA_negctrl_site801],7.35 ± 0.49
16,TTTATTTTTCATAATTGTACAAAAATAAATGGAAAC [XGTACX_site5144],8.46 ± 0.32
17,ATAGATGATATACGTAAACACACAAATAAAAAAAAT [CACACA_site9095],7.92 ± 0.71
18,TACAAATATAGACACACACACATATATATATATATA [CACACA_site585],9.38 ± 0.63
19,CATATATCATAAATATGTACGAAATAAAAGAATCAT [XGTACX_site942],7.96 ± 0.69
20,TTTTCTAAAATATTCATAATAAATCAAAAAAAAAAA [GTGCAC_negctrl_site320],7.82 ± 0.76
21,ATAAAAGGAATATTTGCATGTGGTAGTACATAACAT [TGCATGCA_site978],8.47 ± 0.29
22,TAATATTTTTATTATTAGAATTGTATATGTTTAATA [CACACA_negctrl_site1833],7.13 ± 0.38
23,TTTTCTTACTATTGTAGTACAATATTATATTCTTTT [XGTACX_site1925],8.21 ± 0.26

row,Sequence,gcPBM binding intensity (ln)
1,TATAAATATGTATATACACACTTTTAATATTCATAA [CACACA_site7856],7.59 ± 0.52
2,TGCGTATTCTTATTAGGTACACATATTCGTGATAAT [XGTACX_site5681],7.85 ± 0.27
3,TTAACAAAATATAGCACACATAAATATATATTTATG [CACACA_site351],8.57 ± 0.11
4,TAAAAAATTAATAAAGTGCATAAATATTACAATATT,10.3 ± 0.4
5,TTTTCTAAATATTATAGTACTCTTAATAATATTAAC [XGTACX_site4222],7.68 ± 0.4
6,GACATATTAGAAGGGTGTACATACTTTTAATCATTT [XGTACX_site1698],8 ± 0.21
7,AATATTAAAATATAAACACACAAAATTCAATTATAT [CACACA_site5971],7.46 ± 0.81
8,ATTCATATATTTATTGCATGCAAAGTAAAATAAATA [TGCATGCA_site307],8.23 ± 0.67
9,TACATATATATATGTATATATATATATATATAAATA [XGTACX_negctrl_site351],7.94 ± 0.45
10,ACATAACTGATATATACACACAATACAAATATAGAT [CACACA_site7328],7.85 ± 0.51
11,AAATGTGCATTATGTTGTACAGTCGAAATTTTTTTT [XGTACX_site3812],11.1 ± 0.62
12,ATGAATAAATGAACATGTACATATATATATATATTA [XGTACX_site5005],7.76 ± 0.47
13,AAATTAAAAAGAGCTTGTACAGATGTATACATAATA [XGTACX_site3882],7.84 ± 0.56
14,TATATGAAGCTATAGACACACATATAAAAATAGAAT [CACACA_site1313],7.84 ± 0.67
15,AATTTATATGTTTTGTGTACACAATTTATTAAATTA [XGTACX_site6448],8.1 ± 0.3
16,TTTATAATTCTTACAACACACAATGTACATTTATAT [CACACA_site1261],7.92 ± 0.49
17,ATTATATATAAATATACACACATATATAAAATACAT [CACACA_site5298],7.64 ± 0.5
18,TACATACAGATATATACACACATATAAAATATAGAT [CACACA_site6319],7.75 ± 0.45
19,AAGAGAAAAATATGGTTGCACTAAAAATATATATTT,9.51 ± 0.13
20,TTTGACAAATTATTGTGTACACAATATTATTATATA [XGTACX_site8320],7.92 ± 0.23
21,ACAAAATGTAGATATTGTACATATTGTAGATATTGT [XGTACX_site7619],7.61 ± 0.48
22,AATAAAAAAGAATATACACACATAAATATAAAATAT [CACACA_site683],7.62 ± 0.81
23,AATTAAAAAGAAAAAAGTACATATTTTTTTAAAAAA [XGTACX_site7384],7.82 ± 0.39

row,Sequence,gcPBM binding intensity (ln)
1,AAATATATATTTCTTAGTACATATGTATTTTTTTTT [XGTACX_site938],7.68 ± 0.46
2,ATATATATATATATGTGTACTAATAAGGTTAAATAA [XGTACX_site1535],9.29 ± 0.23
3,CTTCCTTAGGAATGTACACACATATATAATATGTTG [CACACA_site461],7.67 ± 0.39
4,TACAGACAGAAATGCACACACATATTTATATTTATA [CACACA_site7139],9.025 ± 0.035
5,ATTATATATATATAAACACACAAATATTTTTATATA [CACACA_site5005],7.61 ± 0.4
6,TAATATTAATCCTAGTGTACATTAATTTATATGTAT [XGTACX_site3583],7.78 ± 0.47
7,ACCTATATAAGTTATACACACAAATATAGATATATA [CACACA_site7356],7.96 ± 0.35
8,TTTACAGAAAGTTACATACACACTAATATTTACACC [CACACA_site1009],8.44 ± 0.23
9,ATTTAAGATTTAATCACACACATATAGATTATAGAC [CACACA_site7383],7.8 ± 0.67
10,ATGAAGAAGTGTAAATGTACATTTTATGTAGAACAA [XGTACX_site6925],7.97 ± 0.62
11,TTATTTTTTTTTTATTGTACTAGGAAAATTTCGATA [XGTACX_site702],7.71 ± 0.36
12,TTTATATGTATTAAGTGTACACATATAATGTGTTTG [XGTACX_site6629],7.85 ± 0.071
13,TATAAGAGGATATATACACACAAAAATATGTACAGT [CACACA_site6885],7.92 ± 0.52
14,ACCATACAGAATAATGCATGTTCCTTTTTATGAATA [TGCATGCA_site995],7.95 ± 0.67
15,TATACTTGTAAATGCACACATAAGATGCGACTAATG [CACACA_site2118],9.8 ± 0.38
16,AAAAAAATAAAGGATATACACACTAATTATATATAT [CACACA_site2812],8.09 ± 0.49
17,CCAACATAGAGGGGCACACACATATATACCTAAAAA [CACACA_site5088],8.3 ± 0.28
18,CTGTGTTTTGGTTGTACACACGCTACATTCTATATT [CACACA_site2698],8.72 ± 0.13
19,AAAATAATTGTTTACACACCCATTTGTAATTTTACC [CACACA_site3614],7.9 ± 0.67
20,AGATTATAAAATTCTACACACATATATACCTATATA [CACACA_site5848],7.78 ± 0.56
21,TTTTTTTTTTGATGAGCACACATGTTTTTTCTTAGA [CACACA_site3171],8.24 ± 0.65
22,AAAAAATATTTATGTTCACACATTTTATATATGATA [CACACA_site4821],7.57 ± 0.53
23,AAATATTTTTAAAGAAGTACTTTTTAAAAATAATCT [XGTACX_site4897],7.71 ± 0.49

row,Sequence,gcPBM binding intensity (ln)
1,AATAAATATATATACACACCCATATATATATATATA [CACACA_site2595],9.16 ± 0.53
2,GCGTATACTTGTAACGGTACACAGGAAATTATAGAA [XGTACX_site507],8.18 ± 0.89
3,TCTTTGTTTTTTTTTTTTAAACAAAATCATCAAAGG [XGTACX_negctrl_site192],7.6 ± 0.49
4,AAGATACACCTTTTTAGTACTTACATTTTTTTTATT [XGTACX_site1373],8 ± 0.65
5,TATATATATGGACACACACACACCAAAGCGTAGCGC [CACACA_site4209],8.27 ± 0.57
6,TAATGTTGTTTCTGAGGTACACAATTTTTTTTATTT [XGTACX_site8035],7.62 ± 0.39
7,TTAATGAAATATTATACACACAAAAAAATAATTTTA [CACACA_site4231],7.78 ± 0.22
8,TACACTTTTTTTTGTACACACTAAAAAGATTAACAA [CACACA_site6037],8.05 ± 0.21
9,TGTATGTATAATTGAGTGCACAGAAAAAAAAAAGAA,11 ± 0.13
10,TAATTTTCATATTTCTGTACATATATTATAAATATA [XGTACX_site3480],7.76 ± 0.35
11,AGAAAAAAAAAAAAAAAACACACGGTACATTCAAAG [CACACA_site2],7.57 ± 0.67
12,TAATATATATATATTACACACACGTATTATTAAATA [CACACA_site432],7.83 ± 0.44
13,TCTAACATATTTTTAATACACACTTAAAAAAGTACT [CACACA_site1366],8.03 ± 0.3
14,ATTTACATTATATTGAATATGCCATATTATATTATT [CACACA_negctrl_site811],7.58 ± 0.67
15,AATGCTTTTCATCAAGTGCAATATGTTAATACAAAC [GTGCAC_site9619],10.3 ± 0.19
16,GTAGACTGAAACCACACACACATATATAAATATATT [CACACA_site6433],7.96 ± 0.38
17,AAAAAAAAAAATGGTTGTACTTTTTTTATTTGGTGC [XGTACX_site4498],7.84 ± 0.28
18,TATAAAAGTAGACACACACACATATAAATATAAATA [CACACA_site6567],7.72 ± 0.42
19,TCTATATCAACCAGTTGTACTGAATTTACTATATTT [XGTACX_site4205],7.58 ± 0.45
20,ATAGACTTTTGTTTTGTTTTATTTTATTGTATTGTA [CACACA_negctrl_site618],7.61 ± 0.71

# Reference: the supplement of paper PMC11417369
